{
  "source": "PubChem BioAssay AID504332",
  "about": "(National Center for Advancing Translational Sciences (NCATS), 2011)",
  "note": "Among all 350,000 compounds or so, about 31,000 (8.9%) were called active. The shares of active, inactive and inconclusive entries below differ from those in the screen. Calls come from the whole dose curve; as a rule, active = well fitted inhibition curve with a large enough effect; inconclusive = small, poorly fitted or top-dose-only effect; inactive = no such curve, though single readings can be large or run the other way. Potencies beside an inconclusive call are fits to weak or partial responses and may not hold up. % is set by controls: 0 for no effect and ±100 for the full control effect; potency is the fitted concentration of half-maximal effect; tags give direction and shape of the fitted curve.",
  "data": [
    {"molecular_target": "Histone-lysine N-methyltransferase EHMT2 (Homo sapiens) (UniProt Q96KQ7)", "sequence (Q96KQ7 whole entry, looked up)": "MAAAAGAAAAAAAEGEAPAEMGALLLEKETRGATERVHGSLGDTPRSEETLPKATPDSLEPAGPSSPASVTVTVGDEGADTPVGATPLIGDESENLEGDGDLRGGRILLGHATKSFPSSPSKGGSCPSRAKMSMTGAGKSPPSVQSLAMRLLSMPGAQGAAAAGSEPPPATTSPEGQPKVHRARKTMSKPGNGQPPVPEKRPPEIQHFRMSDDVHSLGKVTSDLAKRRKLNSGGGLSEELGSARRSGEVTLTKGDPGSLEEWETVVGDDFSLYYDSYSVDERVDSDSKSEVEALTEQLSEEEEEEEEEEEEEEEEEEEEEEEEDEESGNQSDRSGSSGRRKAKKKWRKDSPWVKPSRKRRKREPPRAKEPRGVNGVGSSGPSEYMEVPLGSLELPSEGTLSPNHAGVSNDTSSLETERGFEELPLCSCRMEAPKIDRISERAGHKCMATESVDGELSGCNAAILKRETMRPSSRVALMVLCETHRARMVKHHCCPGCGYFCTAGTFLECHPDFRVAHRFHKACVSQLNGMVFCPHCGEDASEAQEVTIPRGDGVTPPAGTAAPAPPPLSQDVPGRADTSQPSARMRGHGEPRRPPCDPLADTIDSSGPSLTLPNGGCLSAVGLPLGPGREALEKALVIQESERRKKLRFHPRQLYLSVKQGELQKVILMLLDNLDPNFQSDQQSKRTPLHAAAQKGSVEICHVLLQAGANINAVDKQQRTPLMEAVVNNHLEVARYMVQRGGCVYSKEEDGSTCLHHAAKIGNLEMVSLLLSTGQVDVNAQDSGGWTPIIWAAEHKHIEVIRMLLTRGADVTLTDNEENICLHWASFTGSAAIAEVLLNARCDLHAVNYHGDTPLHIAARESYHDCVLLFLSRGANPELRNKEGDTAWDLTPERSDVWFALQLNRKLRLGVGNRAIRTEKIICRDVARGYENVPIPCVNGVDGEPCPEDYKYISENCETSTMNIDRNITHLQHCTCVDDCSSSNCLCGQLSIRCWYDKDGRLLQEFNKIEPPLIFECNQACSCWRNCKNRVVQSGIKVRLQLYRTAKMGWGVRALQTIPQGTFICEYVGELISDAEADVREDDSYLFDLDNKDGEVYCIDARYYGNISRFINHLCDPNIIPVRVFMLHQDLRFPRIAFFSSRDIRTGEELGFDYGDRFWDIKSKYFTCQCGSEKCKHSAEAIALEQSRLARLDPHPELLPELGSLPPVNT", "experiment": "qHTS Assay for Inhibitors of Histone Lysine Methyltransferase G9a; note: nearly all actives have a fitted effect of over 75% in size", "conditions": "G9a H3K9 monomethylation, AlphaScreen, 2 h; activity, negative = inhibition: at 59 µM (top of the series) unless noted", "in_short": "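Using a bead-based AlphaScreen, monomethylated H3K9 product from 2 h room-temperature reactions (G9a 20 nM, peptide 500 nM, SAM 20 uM) was detected with 0.5 ug/mL rabbit anti-H3K9me1 antibody.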", "values": [
      {"smiles": "N#Cc1ccccc1Sc1ccccc1C(=O)NCC(c1ccco1)N1CCCC1", "note": "(stereo not given)", "Potency": "active: 2.82 µM"},
      {"smiles": "CCCc1sc(C(=O)Nc2nnc(C3CC3)s2)cc1CC", "Potency": "inconclusive: 39.8 µM [inhibitor, partial curve, poor fit]"},
      {"smiles": "COc1cc(NC(=O)c2cn(C3CCCC3)c(=O)c3c2c2ccccc2n3C)cc(OC)c1OC", "Potency": "inconclusive: 8.91 µM [inhibitor, partial curve, poor fit]"},
      {"smiles": "O=C(C(c1ccccc1)c1ccccc1)N1CCN(Cc2ccco2)CC1", "Potency": "active: 3.98 µM"},
      {"smiles": "COc1ccc(OC)c(N(CC(=O)Nc2cccnc2)S(=O)(=O)c2ccc(C)cc2)c1", "Potency": "inconclusive: 31.6 µM [inhibitor, single point]"},
      {"smiles": "O=C(Cn1cnc2ccccc21)OCC(=O)N1CCc2ccccc2C1", "Potency": "inconclusive: 15.8 µM [inhibitor, single point]"},
      {"smiles": "O=C(Nc1ccc(-c2ccc(N3CCCCC3)nn2)cc1)c1ccco1", "Potency": "inconclusive: 56.2 µM [inhibitor, partial curve, poor fit]"},
      {"smiles": "Cc1cc(NC(=O)Nc2nnc(N(C)Cc3ccccc3)s2)ccc1Br", "Potency": "inactive"},
      {"smiles": "CC(NC(=O)c1cc(F)c(F)cc1Cl)c1ccncc1", "note": "(stereo not given)", "Potency": "inactive"},
      {"smiles": "CCNc1nc(NCC)nc(SCCOC(=O)Nc2ccc(Cl)cc2Cl)n1", "Potency": "inactive"},
      {"smiles": "Cc1cc(C)c2cc(C#N)c(NCCNC(=S)NCCCN3CCOCC3)nc2c1", "Potency": "inconclusive: 79.4 µM [inhibitor, partial curve, poor fit]"},
      {"smiles": "COC(=O)c1c(NC(=O)CN2CCN(c3cccc(Cl)c3)CC2)sc(C)c1C", "Potency": "inactive"},
      {"smiles": "COc1cc(C(=O)OCC(=O)N(CC(C)C)C2CCS(=O)(=O)C2)cc(OC)c1C", "note": "(stereo not given)", "Potency": "inconclusive: 2 µM [inhibitor, partial curve, poor fit]"},
      {"smiles": "O=C(Cc1sc(-c2ccccc2Cl)nc1-c1ccccc1)Nc1ccccc1", "Potency": "inactive"},
      {"smiles": "N#C/C(=C(/O)COC(=O)c1ccc(C#N)cc1)c1nc2ccccc2s1", "Potency": "inconclusive: 1.78 µM [inhibitor, full curve, poor fit]"},
      {"smiles": "c1ccc(OCC2CCNCC2)nc1", "Potency": "active: 79.4 µM"},
      {"smiles": "O=C(CC1C(=O)NCCN1Cc1cccc(F)c1)NCCCCCN1CCOCC1", "note": "(stereo not given)", "Potency": "active: 70.8 µM"},
      {"smiles": "O=C(COc1ccc(S(=O)(=O)NC2CCCCC2)cc1Cl)NCc1cccnc1", "Potency": "inconclusive: 25.1 µM [inhibitor, single point]"},
      {"smiles": "COc1ccc(N=C2O/C(=C/c3sc(=S)n(CC4CCCO4)c3O)N=C2C#N)cc1", "note": "(stereo not given)", "Potency": "active: 11.2 µM"},
      {"smiles": "COc1ccc(N2CCN(CCCNC(=O)Cn3c(-c4cccs4)cc4ccccc43)CC2)cc1", "Potency": "active: 10 µM"},
      {"smiles": "O=C(NCc1nc(-c2ccc(C(F)(F)F)cc2)no1)c1cccs1", "Potency": "inactive"},
      {"smiles": "COc1ccc(NC(=O)CSc2nnc(Cc3ccc(C)cc3)c(=O)n2N)cc1", "Potency": "inactive"},
      {"smiles": "O=C(CC1C(=O)NCCN1Cc1ccc(-c2ccccc2)cc1)NCC1CC1", "note": "(stereo not given)", "Potency": "inconclusive: 44.7 µM [inhibitor, partial curve, poor fit]"},
      {"smiles": "CC(=O)N1CCc2cc(Br)cc(S(=O)(=O)N3CCCCC3)c21", "Potency": "inconclusive: 89.1 µM [inhibitor, single point]"},
      {"smiles": "Cc1cccc(C)c1N1CCN(S(=O)(=O)c2ccccc2)CC1", "Potency": "inactive"},
      {"smiles": "Cc1ccc(C(=O)/C=C/c2cn(CC(O)CN3CCOCC3)c3ccccc23)cc1", "note": "(stereo not given)", "Potency": "inactive"},
      {"smiles": "COc1ccc(-c2csc(NC(=O)c3cc(C)on3)c2C#N)cc1OC", "Potency": "inconclusive: 1.41 µM [inhibitor, partial curve, poor fit]"},
      {"smiles": "CCN(CC)CCCN(C(=O)c1cccs1)c1nc(-c2ccc(OC)cc2)cs1", "Potency": "inconclusive: 50.1 µM [inhibitor, partial curve, poor fit]"},
      {"smiles": "Cc1cc(C(=O)CSc2n[nH]c(-c3ccccc3F)n2)c(C)n1Cc1cccs1", "Potency": "inconclusive: 3.16 µM [inhibitor, single point]"},
      {"smiles": "CC(C)(C)C(=O)Nc1ccc(C(=O)Nc2cccnc2)cc1", "Potency": "inconclusive: 39.8 µM [inhibitor, partial curve, poor fit]"},
      {"smiles": "C/C(=N\\NC(=O)c1ccccc1-n1cccc1)C1CC1", "Potency": "inactive"},
      {"smiles": "Cc1cc(C)nc(NS(=O)(=O)c2ccc(NC(=S)NC(=O)CC(C)C)cc2)n1", "Potency": "inconclusive: 39.8 µM [inhibitor, single point]"},
      {"smiles": "CCOC(=O)c1c(C)[nH]c(C)c1C(=O)COC(=O)/C=C/c1ccc(OC)cc1", "Potency": "inconclusive: 44.7 µM [inhibitor, partial curve]"},
      {"smiles": "O=C(NCCC1CCCCN1S(=O)(=O)c1ccc(F)cc1)C(=O)NCc1ccccn1", "note": "(stereo not given)", "activity, negative = inhibition": "inactive: 2.44% [at 0.501 µM]"},
      {"smiles": "CCCCNC(=O)c1cccc(-n2c(C)nc3cccnc32)c1", "Potency": "inactive"},
      {"smiles": "CCOC(=O)CSc1nc2c(sc(=S)n2-c2ccccc2)c(=O)n1-c1ccc(OC)cc1OC", "Potency": "active: 1.58 µM"},
      {"smiles": "CCCCN(CC)CCCNC(=O)Nc1sc2nc3n(c(=O)c2c1C)CCC(C)CC3", "note": "(stereo not given)", "Potency": "inactive"},
      {"smiles": "CC(NC(=O)C1CCN(c2nc3ccccc3nc2C(F)(F)F)CC1)c1ccccc1", "note": "(stereo not given)", "Potency": "inconclusive: 39.8 µM [inhibitor, single point]"},
      {"smiles": "O=C1OC(c2cccs2)=N/C1=C\\c1ccc(-c2ccccc2Cl)o1", "Potency": "active: 39.8 µM"},
      {"smiles": "CC(C)C1Cc2c(C#N)c(N)sc(=S)c2CO1", "note": "(stereo not given)", "Potency": "active: 7.94 µM"},
      {"smiles": "Cc1cccc(OCC(=O)NNC(=O)c2cc3ccccc3oc2=O)c1", "Potency": "inconclusive: 0.708 µM [inhibitor, full curve, poor fit]"},
      {"smiles": "CCN(CC)S(=O)(=O)c1ccc(N2CCOCC2)c(NC(=O)c2cc(C)cc(C)c2)c1", "Potency": "inactive"},
      {"smiles": "COc1ccc(N(C(=O)c2ccco2)C(C(=O)NC2CCCC2)c2ccc(N(C)C)cc2)cc1OC", "note": "(stereo not given)", "Potency": "inconclusive: 31.6 µM [inhibitor, single point]"},
      {"smiles": "CCCCn1c(=O)c(CCC(=O)OCC(=O)Nc2cccc3ccccc23)nc2ccccc21", "Potency": "inconclusive: 20 µM [inhibitor, single point]"},
      {"smiles": "O=[N+]([O-])c1ccc(-c2ccc(/C=N/Nc3nc(N4CCCCC4)nc(N4CCCCC4)n3)o2)cc1", "Potency": "inconclusive: 44.7 µM [inhibitor, partial curve]"}
    ]}
  ]
}
